Source: PubChem BioAssay AID686978 (National Center for Advancing Translational Sciences (NCATS), 2013)
“And” between values parts separate entries of the source, which are not always exact repeats. Equal entries are not always repeated. Hit rate of the full screen: of about 420,000 compounds, about 64,000 (15%) were called active. This list was built around the results that the source calls inconclusive (neither active nor inactive); the mix of calls is not that of the screen. Calls come from the whole dose curve; as a rule, active = well fitted inhibition curve with a large enough effect; inconclusive = small, poorly fitted or top-dose-only effect; inactive = flat fitted curve, though single readings scatter. Potencies beside an inconclusive call are fits to weak or partial responses and may not hold up.

Assay: qHTS for Inhibitors of human tyrosyl-DNA phosphodiesterase 1 (TDP1): qHTS in cells in absence of CPT; note: nearly all actives have a fitted effect of over 55% in size
Settings: DT40 Tdp1-/- hTDP1 cells, no CPT, ATP luminescence, 48 h; activity change, negative = growth inhibition: at 46.2 µM (top of the series) unless noted
How it was run: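 Cells were dispensed at 400 per well, compounds added by pin tool, plates incubated ≥48 hr at 37 °C, then CellTiter-Glo added for 30 min at room temperature before luminescence reading. Line: DT40 Tdp1-/- complemented with hTDP1; camptothecin omitted.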
% is set by controls: 0 for no effect and ±100 for the full control effect; potency is the fitted concentration of half-maximal effect; tags give direction and shape of the fitted curve.

Which Potency does the source give for `C[C@H]1CN(c2ccccc2)C(=O)[C@@H]1CC(=O)Nc1ccc(Br)cc1` here?
Its Potency is inconclusive: 29.1 µM [inhibitor, single point].

With `Cc1cc(C)nc(Nc2nc(C(N)Cc3ccc(C(F)(F)F)cc3)cs2)n1` (configuration not stated) as the compound, how does the Potency read?
The Potency was active: 6.51 µM.

With `CC(CN1c2ccccc2Sc2cccnc21)N(C)C` (configuration not stated) as the compound, how does the Potency read?
The Potency was inconclusive: 18.8 µM [inhibitor, single point].

For `Nc1ccc(C(=O)Nc2ccc(Nc3ccncc3)cc2)c([N+](=O)[O-])c1`, which Potency is on record?
Its Potency is “inactive”.

For `CCOc1ccc(/C=C(\C#N)C(=O)NCC2CCCO2)cc1OCC` (configuration not stated), which Potency is on record?
Its Potency is inconclusive: 18.4 µM [inhibitor, partial curve].

With `CC1=C(C#N)CCC(=O)N1Cc1c(C)cc(C)cc1C` as the compound, how does the Potency read?
Its Potency is inconclusive: 29.1 µM [inhibitor, single point].

Which Potency does the source give for `O=C(CN1C(=O)c2cccc3cccc1c23)Nc1ccc(S(=O)(=O)Nc2nccs2)cc1` here?
The Potency was “inactive”.

Which Potency does the source give for `Cc1c(C(=O)N(Cc2ccncc2)CC2CCCO2)oc2c(F)cccc12` (configuration not stated) here?
Its Potency is “inactive”.

Which Potency does the source give for `Cc1ccccc1NC(=S)Nc1cccc([N+](=O)[O-])c1` here?
The Potency was inconclusive: 29.1 µM [inhibitor, single point].

Which Potency does the source give for `Cc1csc(CN(C)C(=O)CC2C(=O)NCCN2Cc2ccccc2C)n1` (configuration not stated) here?
Its Potency is inconclusive: 29.1 µM [inhibitor, single point].

For `Fc1ccc(Sc2ccccc2CNC2=NCCN2)cc1`, which Potency is on record?
The Potency was active: 18.4 µM.

Which Potency does the source give for `CCN1CCN(c2ccc(S(=O)(=O)N3CCCCC3)cc2NC(=O)c2sccc2C)CC1` here?
The Potency was active: 23.1 µM.

For `Cn1c(SCc2nc(-c3ccc(Cl)cc3)no2)nnc1-c1ccco1`, which Potency is on record?
The Potency was inconclusive: 29.1 µM [inhibitor, single point].

For `COC(=O)[C@@]1(Cc2ccc(F)cc2)[C@H]2c3cc(C(=O)N(C)C)n(CCCNc4ncc(C(F)(F)F)cc4Cl)c3C[C@H]2CN1C(=O)c1ccccc1`, which Potency is on record?
Its Potency is inconclusive: 29.1 µM [inhibitor, single point].

For `O=C1OC(c2ccc3c(c2)OCO3)=N/C1=C\c1ccc(C(=O)O)cc1`, which Potency is on record?
Its Potency is “inactive”.

For `Cc1cc2c3c(c1)C1(C(=O)N3C(C)(C)CC2C)C(C#N)=C(N)Oc2n[nH]c(C)c21` (configuration not stated), which Potency is on record?
Its Potency is inconclusive: 29.1 µM [inhibitor, single point].

For `COc1cc(O)c(C(CCN2CCCC(C)C2)c2ccc3c(c2)OCO3)c(OC)c1` (configuration not stated), which Potency is on record?
Its Potency is active: 16.4 µM.

For `O=C(CCOc1ccccc1)N(Cc1cccnc1)c1nc2ccc(Cl)cc2s1`, which Potency is on record?
Its Potency is inconclusive: 29.1 µM [inhibitor, single point].

With `O=C(c1cc(F)c(F)cc1Cl)N1CCOCC1` as the compound, how does the Potency read?
The Potency was “inactive”.

Which Potency does the source give for `CC1CCN(c2ccc(C=O)o2)CC1` here?
The Potency was inconclusive: 32.6 µM [inhibitor, single point].

For `CCCCC(=O)Nc1ccc(NC(=O)c2ccc(C)c([N+](=O)[O-])c2)cc1OC`, which Potency is on record?
The Potency was “inactive”.

With `O=C(CSc1ccccn1)Nc1ccc(F)c([N+](=O)[O-])c1` as the compound, how does the Potency read?
The Potency was inconclusive: 7.31 µM [inhibitor, partial curve].

For `O=C(Nc1ccc(Br)cc1F)c1cc(S(=O)(=O)NC2CCCCC2)ccc1F`, which Potency is on record?
Its Potency is active: 20.6 µM.

With `CCOC(=O)c1ccc(NC(=O)CSc2nc3cc4ccccc4cc3[nH]2)cc1` as the compound, how does the Potency read?
Its Potency is active: 18.4 µM.

With `CN(C)CCNc1nc2sc3c(c2c(=O)n1Cc1ccccc1)CCCCC3` as the compound, how does the Potency read?
Its Potency is inconclusive: 29.1 µM [inhibitor, single point].

For `CCCn1nc(NC(=O)c2ccncc2)c2cc3ccccc3nc21`, which Potency is on record?
Its Potency is inconclusive: 16.4 µM [inhibitor, single point].

For `Cc1ccc(NC(=S)NCc2ccc3c(c2)OCO3)cc1C`, which Potency is on record?
Its Potency is inconclusive: 23.1 µM [inhibitor, single point].

With `O=C(CSC1=NCCS1)c1ccc(Cl)cc1` as the compound, how does the activity change, negative = growth inhibition read?
Its activity change, negative = growth inhibition is inconclusive: -30.3% [inhibitor].

With `Cc1c(C(=O)OC(C)C(=O)N(C)Cc2ccccc2)oc2ccccc12` (configuration not stated) as the compound, how does the Potency read?
Its Potency is inconclusive: 18.4 µM [inhibitor, partial curve].

Which Potency does the source give for `Cc1ccc(CNC(=O)CSCc2ccccc2)cc1` here?
The Potency was “inactive”.

For `Cc1nonc1OCCN1CCN(c2ccccc2[N+](=O)[O-])CC1`, which Potency is on record?
The Potency was inconclusive: 29.1 µM [inhibitor, single point].

For `CC(C)CNC(=S)N1CCC(c2nc(-c3ccc(F)cc3)no2)CC1`, which Potency is on record?
Its Potency is active: 20.6 µM.

Which Potency does the source give for `Cc1ccc(CN(Cc2ccco2)C(=O)c2oc3cc(Br)ccc3c2C)cc1` here?
The Potency was inconclusive: 20.6 µM [inhibitor, single point].

With `N#Cc1c(/N=C/N2CCCC2)oc(-c2ccccc2)c1-c1ccccc1` as the compound, how does the Potency read?
The Potency was inconclusive: 23.1 µM [inhibitor, single point].

Which Potency does the source give for `COc1ccc(CNC(=O)Cn2ccc3cc(S(=O)(=O)N4CCCCC4)ccc32)cc1OC` here?
The Potency was inconclusive: 16.4 µM [inhibitor, single point].

With `Cc1ccc(-n2c(=O)c3c4c(sc3n(Cc3cc(=O)n5ccccc5n3)c2=O)CCC4)cc1C` as the compound, how does the Potency read?
Its Potency is inconclusive: 11.6 µM [inhibitor, partial curve] and inconclusive: 29.1 µM [inhibitor, single point].

Which Potency does the source give for `CC(C)OCCCNC(=O)c1ccc(C2SCC(=O)N2Cc2ccco2)cc1` (configuration not stated) here?
The Potency was inconclusive: 23.1 µM [inhibitor, single point].

For `S=C(NCc1ccccc1)NCc1ccccc1Cl`, which Potency is on record?
Its Potency is “inactive”.

Which Potency does the source give for `Cc1nc(Oc2ccc(S(=O)(=O)N3CCOCC3)cc2Cl)c2c3c(sc2n1)CCCC3` here?
Its Potency is inconclusive: 29.1 µM [inhibitor, single point].

For `CC(=O)N1c2ccccc2N=C(c2ccc3c(c2)OCO3)C1C(=O)NCc1ccccc1` (configuration not stated), which Potency is on record?
Its Potency is inconclusive: 23.1 µM [inhibitor, single point].

For `Cc1c(C(=O)c2ccccc2)oc2ccc3ccccc3c12`, which Potency is on record?
Its Potency is inconclusive: 9.2 µM [inhibitor, partial curve].

For `CC(C)(CN1CCc2ccccc2C1)NS(=O)(=O)c1ccccc1`, which Potency is on record?
Its Potency is inconclusive: 23.1 µM [inhibitor, single point].

Which Potency does the source give for `CCn1c2c(c3cc(Cl)ccc31)CCCC2=O` here?
Its Potency is “inactive”.

With `CCOc1ccccc1-n1c(SCC(=O)N(C(C)C)C(C)C)nnc1-c1cccnc1` as the compound, how does the Potency read?
The Potency was inconclusive: 29.1 µM [inhibitor, single point].

With `CCCCOCCCNC(=O)c1c(-c2ccccc2)noc1C` as the compound, how does the Potency read?
Its Potency is “inactive”.

With `CN1CCC(=O)N([C@H](CSc2ccc(Br)cc2)Cc2ccccc2)CC1` as the compound, how does the Potency read?
Its Potency is inconclusive: 18.4 µM [inhibitor, single point].

With `CCc1ccc(S(=O)(=O)Nc2ccc(-c3ccc4nnc(C)n4n3)cc2)s1` as the compound, how does the Potency read?
The Potency was inconclusive: 16.4 µM [inhibitor, single point].

For `COc1ccc(OC)c(C2CC(c3ccccc3)=NN2C(=S)Nc2ccccc2)c1` (configuration not stated), which Potency is on record?
The Potency was active: 3.66 µM.

Which Potency does the source give for `NC(=O)c1ccc(NC(=O)COC(=O)c2c3c(nc4ccccc24)/C(=C\c2ccc4c(c2)OCO4)CCC3)cc1` here?
Its Potency is active: 8.2 µM.

Which Potency does the source give for `CCNC(=O)c1c(O)c2ccccc2[nH]c1=O` here?
The Potency was inconclusive: 20.6 µM [inhibitor, single point].

With `COc1ccc(C(C)=O)cc1CS(=O)(=O)CC(=O)O` as the compound, how does the Potency read?
The Potency was “inactive”.

Which Potency does the source give for `C=CCn1c(C)nnc1SCC(=O)Nc1ccccc1C(=O)NC1CC1` here?
The Potency was “inactive”.

For `O=C(COC(=O)c1ccccc1NC(=O)c1ccco1)Nc1ccc2c(c1)OCO2`, which activity change, negative = growth inhibition is on record?
Its activity change, negative = growth inhibition is inconclusive: -34% [inhibitor].

For `CCCn1c(SCC(=O)Nc2cccnc2Cl)n[nH]c1=O`, which Potency is on record?
Its Potency is “inactive”.

With `Cc1ccc(S(=O)(=O)n2nc(C)c(C#N)c2N)cc1` as the compound, how does the Potency read?
Its Potency is inconclusive: 20.6 µM [inhibitor, partial curve].

For `CC1=C(C(=O)OCC2CCCCC2)C(c2ccc(Cl)cc2)CC(=O)N1` (configuration not stated), which Potency is on record?
The Potency was inconclusive: 25.9 µM [inhibitor, single point].

With `O=C1N(Cc2ccccc2Cl)c2ccccc2C1(O)c1c[nH]c2ccccc12` (configuration not stated) as the compound, how does the Potency read?
The Potency was inconclusive: 16.4 µM [inhibitor, partial curve, poor fit].

For `O=C(COC(=O)C1=NNC(=O)CC1)NCCc1ccccc1`, which Potency is on record?
The Potency was “inactive”.

Which Potency does the source give for `O=[N+]([O-])c1ccc(CS(=O)c2ccccc2)cc1` (configuration not stated) here?
The Potency was “inactive”.

For `Cc1csc(NC(=O)CCSCCc2ccccn2)n1`, which Potency is on record?
Its Potency is “inactive”.

With `CCN(Cc1cccc(OC)c1)CC1CCCN(CCc2cccc(OC)c2)C1` (configuration not stated) as the compound, how does the Potency read?
The Potency was inconclusive: 29.1 µM [inhibitor, single point].

With `Cc1sc(NC(=O)CN2CCN(c3ccccn3)CC2)c(C#N)c1C` as the compound, how does the Potency read?
Its Potency is “inactive”.

Which Potency does the source give for `COc1cccc(NC(=O)NC2CCCc3ccccc32)c1` (configuration not stated) here?
The Potency was inconclusive: 29.1 µM [inhibitor, single point].

For `CCOC(=O)c1ccc(-c2ccc(C(=O)Nc3cccnc3)o2)cc1`, which Potency is on record?
The Potency was inconclusive: 18.4 µM [inhibitor, single point].

For `COc1ccccc1CC1(C)C(=O)Nc2c(Cl)cccc21` (configuration not stated), which Potency is on record?
The Potency was inconclusive: 18.4 µM [inhibitor, single point].

Which Potency does the source give for `O=S(=O)(N[C@H](CO)c1ccccc1)c1ccc(Br)cc1F` here?
The Potency was “inactive”.

Which Potency does the source give for `O=C1c2ccccc2C(=O)N1CN(C(=O)COc1ccc(Cl)cc1Cl)c1cccc(F)c1` here?
Its Potency is inconclusive: 25.9 µM [inhibitor, single point].

Which Potency does the source give for `Cc1csc(=O)n1CCC(=O)OCC(=O)NCc1ccc(F)cc1` here?
The Potency was “inactive”.

Which Potency does the source give for `O=C(NNC(=O)c1ccc(-c2ccccc2)cc1)Nc1ccc(F)cc1F` here?
Its Potency is “inactive”.

With `CSc1ncc(C(=O)Nc2ccc(C)c(Cl)c2)c(-c2ccccc2)n1` as the compound, how does the Potency read?
The Potency was inconclusive: 25.9 µM [inhibitor, single point].

Which Potency does the source give for `CCN(CC)CCn1c(NC(=O)c2ccccc2O)nc2ccccc21` here?
Its Potency is inconclusive: 29.1 µM [inhibitor, single point].

Which Potency does the source give for `Nc1ccc(-c2ncc(-c3ccccc3)o2)cc1` here?
The Potency was inconclusive: 25.9 µM [inhibitor, partial curve, poor fit].
